Drawing on article PMC4242493, this text covers binding signal (normalized occupancy) for 172 sequences.

The list shows a part of the results. The list includes weakly bound sequences.

This test concerns the target MaxL homodimer (UniProt P61244). Nature of the test: universal protein-binding microarray (PBM). The conditions noted are these: PBS-based mixture, 10 nM His-tagged protein dimer, 2% milk, 200 ng/uL BSA, 50 ng/uL salmon testes DNA, 0.02% TX-100; detection with Alexa 488 anti-His …; high values mean tight binding; most listed sequences are background and not binding sites; double strand, one strand shown.
Chain of UniProt P61244 (P61244 whole entry): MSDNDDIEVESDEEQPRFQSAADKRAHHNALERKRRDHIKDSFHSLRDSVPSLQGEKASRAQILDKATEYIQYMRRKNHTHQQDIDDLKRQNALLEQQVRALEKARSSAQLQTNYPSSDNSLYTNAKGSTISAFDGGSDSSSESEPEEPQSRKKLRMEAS
Take TAATTGCA: the binding signal (normalized occupancy) came out at 0.0767.

CTTCACCC: the binding signal (normalized occupancy) was 0.0709.

For CATGCTCC, the binding signal (normalized occupancy) stood at 0.105.

On to TATGCCCA, for which the binding signal (normalized occupancy) is 0.0827.

Take AATTAGAG: the binding signal (normalized occupancy) amounted to 0.0731.

Take ATGGGTAC: the binding signal (normalized occupancy) stood at 0.0885.

GGGGGATA: the binding signal (normalized occupancy) stood at 0.0856.

Consider ACCCAGGG, for which the binding signal (normalized occupancy) is 0.075.

ATGCACAT: the binding signal (normalized occupancy) is 0.091.

With CTTGCGTC, the binding signal (normalized occupancy) was 0.0745.

Consider CCCTTAAC, for which the binding signal (normalized occupancy) came to 0.081.

Turning to CACGGCTG, the binding signal (normalized occupancy) came out at 0.0724.

For AAGGAAGT, the binding signal (normalized occupancy) was 0.0705.

As for CTTTACTC, the binding signal (normalized occupancy) came out at 0.0791.

CAGGCCAG: the binding signal (normalized occupancy) came out at 0.0704.

As to AAGTGGTC, the binding signal (normalized occupancy) came to 0.0703.

In the case of CGTTAAAA, the binding signal (normalized occupancy) was determined as 0.0745.

With ACGGTGGC, the binding signal (normalized occupancy) was 0.079.

With AGAGGCGA, the binding signal (normalized occupancy) came out at 0.0756.

As for ATTTTGTC, the binding signal (normalized occupancy) came to 0.0833.

As for CAGGCTCG, the binding signal (normalized occupancy) was found to be 0.0704.

For the sequence ACATTCAG, the binding signal (normalized occupancy) was found to be 0.0769.

With GTCCTGGA, the binding signal (normalized occupancy) was found to be 0.0705.

With AACAGCTA, the binding signal (normalized occupancy) amounted to 0.0702.

Turning to ACATGGCA, the binding signal (normalized occupancy) is 0.0904.

On to CAGCCTTA, for which the binding signal (normalized occupancy) stood at 0.0704.

As for CTGTTATC, the binding signal (normalized occupancy) stood at 0.078.

CTTTGTTC: the binding signal (normalized occupancy) turned out to be 0.0703.

For the sequence CACTGTAG, the binding signal (normalized occupancy) was found to be 0.0709.

For the sequence AGCTCGCC, the binding signal (normalized occupancy) came out at 0.0687.

Regarding CGCTTGAA, the binding signal (normalized occupancy) was determined as 0.0767.

For CCTTCTAC, the binding signal (normalized occupancy) worked out at 0.0814.

For GGCACCGA, the binding signal (normalized occupancy) came to 0.0735.

As for GAACACAC, the binding signal (normalized occupancy) came to 0.0767.

AATGGGGT: the binding signal (normalized occupancy) worked out at 0.0815.

With ACATACTA, the binding signal (normalized occupancy) was determined as 0.0827.

As for AAAACGGG, the binding signal (normalized occupancy) worked out at 0.0748.

With CTTCAAGC, the binding signal (normalized occupancy) was 0.066.

Take ACTGTAAA: the binding signal (normalized occupancy) was 0.07.

In the case of ATGTACAG, the binding signal (normalized occupancy) was determined as 0.0788.

As to CTTACAAA, the binding signal (normalized occupancy) came out at 0.0731.

With GAGACTGC, the binding signal (normalized occupancy) was 0.0672.

For GCATCGCA, the binding signal (normalized occupancy) was 0.0729.

On to AGTTCTGA, for which the binding signal (normalized occupancy) came to 0.0719.

Consider GCCCTAGC, for which the binding signal (normalized occupancy) worked out at 0.0751.

With CGCCGTGC, the binding signal (normalized occupancy) worked out at 0.0731.

CATCAGTA: the binding signal (normalized occupancy) is 0.0737.

Regarding ACAACGTG, the binding signal (normalized occupancy) stood at 0.149.

With AAAAGCTA, the binding signal (normalized occupancy) was determined as 0.0755.

In the case of CTCAGTAA, the binding signal (normalized occupancy) stood at 0.0708.

In the case of CTTGCGTA, the binding signal (normalized occupancy) came to 0.0773.

ATTTAATA: the binding signal (normalized occupancy) is 0.0819.

Regarding ATCTGGGA, the binding signal (normalized occupancy) was 0.0784.

As for CTCATCAC, the binding signal (normalized occupancy) came out at 0.0847.

CAACTTGG: the binding signal (normalized occupancy) is 0.0743.

Regarding CTATTAAA, the binding signal (normalized occupancy) turned out to be 0.0743.

Take ATGTGGAA: the binding signal (normalized occupancy) was 0.0936.

As for CCGCCTAG, the binding signal (normalized occupancy) was 0.0722.

As for GGCACCAA, the binding signal (normalized occupancy) is 0.0733.

Turning to CGACTTAC, the binding signal (normalized occupancy) was 0.0757.

GCAAACCA: the binding signal (normalized occupancy) is 0.0788.

CAAGACCA: the binding signal (normalized occupancy) is 0.0735.

As for AGTAATAA, the binding signal (normalized occupancy) was 0.0782.

Regarding AGCCAGAG, the binding signal (normalized occupancy) is 0.0664.

For ATAGTGCA, the binding signal (normalized occupancy) was 0.0789.

On to CCCATGCC, for which the binding signal (normalized occupancy) was 0.0969.

As to ACTCCTAG, the binding signal (normalized occupancy) worked out at 0.0733.

With CACTTTAC, the binding signal (normalized occupancy) worked out at 0.0758.

Regarding ATATGTTG, the binding signal (normalized occupancy) came to 0.0848.

On to CTAAGACC, for which the binding signal (normalized occupancy) came out at 0.0743.

In the case of CTATTAAG, the binding signal (normalized occupancy) was found to be 0.0714.

For GTTTGGAA, the binding signal (normalized occupancy) amounted to 0.0754.

CGGCTGTC: the binding signal (normalized occupancy) was determined as 0.0725.

In the case of ATTATGTC, the binding signal (normalized occupancy) amounted to 0.0782.

As to CGTACAAC, the binding signal (normalized occupancy) turned out to be 0.0768.

In the case of GAAGACTA, the binding signal (normalized occupancy) amounted to 0.0725.

Take ATATTAGC: the binding signal (normalized occupancy) was 0.0805.

On to CCTAGGGC, for which the binding signal (normalized occupancy) was 0.0665.

As for ATCCTTGC, the binding signal (normalized occupancy) came to 0.082.

As for GTTCAACA, the binding signal (normalized occupancy) was 0.0758.

On to GTCATGAC, for which the binding signal (normalized occupancy) worked out at 0.0806.

Take TATCTGCA: the binding signal (normalized occupancy) worked out at 0.0786.

CTTACGTC: the binding signal (normalized occupancy) worked out at 0.0749.

For ATTCTTTA, the binding signal (normalized occupancy) stood at 0.0726.

Consider GTCCTAGA, for which the binding signal (normalized occupancy) was 0.0687.

For the sequence AGTCCCGA, the binding signal (normalized occupancy) was 0.069.

On to AACTTCAC, for which the binding signal (normalized occupancy) was found to be 0.0762.

With CTTATGGC, the binding signal (normalized occupancy) was 0.0778.

Consider AGATTGTG, for which the binding signal (normalized occupancy) turned out to be 0.078.

On to GACAACTC, for which the binding signal (normalized occupancy) came to 0.0735.

For the sequence CATGCTAC, the binding signal (normalized occupancy) was 0.0953.

TCACACCA: the binding signal (normalized occupancy) worked out at 0.0869.

As to ATTTCTAG, the binding signal (normalized occupancy) was 0.068.

With CTATATTA, the binding signal (normalized occupancy) came to 0.0834.

Take GACATGGC: the binding signal (normalized occupancy) is 0.0801.

For the sequence CTTGACAA, the binding signal (normalized occupancy) stood at 0.0778.

As to CCTTTGAA, the binding signal (normalized occupancy) was determined as 0.075.

As for TCTCTTCA, the binding signal (normalized occupancy) is 0.0695.

Consider CCTCTACC, for which the binding signal (normalized occupancy) turned out to be 0.075.

Turning to AATTGTCT, the binding signal (normalized occupancy) amounted to 0.075.

Regarding ACGCGATC, the binding signal (normalized occupancy) was found to be 0.0797.

In the case of TATACGAA, the binding signal (normalized occupancy) was 0.0761.

Turning to GTTCAGAA, the binding signal (normalized occupancy) amounted to 0.0721.

With AGCCACGG, the binding signal (normalized occupancy) was determined as 0.0742.

In the case of GAGCGGCC, the binding signal (normalized occupancy) amounted to 0.0635.

AATCGGAA: the binding signal (normalized occupancy) was 0.0705.

Regarding GTGACGGA, the binding signal (normalized occupancy) is 0.0773.

As to ATGTCAGC, the binding signal (normalized occupancy) was 0.0849.

For CGGATAAA, the binding signal (normalized occupancy) was 0.0763.

Turning to GCTAACAA, the binding signal (normalized occupancy) was determined as 0.0745.

With TGTCGTAA, the binding signal (normalized occupancy) stood at 0.0729.

For the sequence CCTAAAGC, the binding signal (normalized occupancy) is 0.0733.

For the sequence GGTGTCCA, the binding signal (normalized occupancy) was found to be 0.0769.

In the case of TCTGAGAA, the binding signal (normalized occupancy) was 0.0726.

As for TAACACTA, the binding signal (normalized occupancy) was 0.0772.

For CGTGTACC, the binding signal (normalized occupancy) came to 0.0895.

As to ACGACGAA, the binding signal (normalized occupancy) came to 0.0694.

Take GTCATACA: the binding signal (normalized occupancy) turned out to be 0.0802.

Consider CAGAGTCG, for which the binding signal (normalized occupancy) turned out to be 0.0728.

For CTTACGTA, the binding signal (normalized occupancy) is 0.0743.

Turning to ATCAATCC, the binding signal (normalized occupancy) was determined as 0.0771.

ATCTACCC: the binding signal (normalized occupancy) was 0.0783.

For the sequence AAGGGAAA, the binding signal (normalized occupancy) was determined as 0.074.

Consider GCACGAGA, for which the binding signal (normalized occupancy) was 0.098.

Regarding CTCTGTTA, the binding signal (normalized occupancy) was 0.0725.

GGACAGGA: the binding signal (normalized occupancy) was determined as 0.0735.

Regarding GATTGTCA, the binding signal (normalized occupancy) came out at 0.0753.

With AGACCTGA, the binding signal (normalized occupancy) turned out to be 0.0718.

Take CGGGTCCA: the binding signal (normalized occupancy) was 0.0703.

With TTAATTAA, the binding signal (normalized occupancy) turned out to be 0.0705.

As for ATGCGGAA, the binding signal (normalized occupancy) amounted to 0.0817.

Take AGCTATGA: the binding signal (normalized occupancy) was 0.0732.

Turning to ACAGTATA, the binding signal (normalized occupancy) worked out at 0.0771.

For ACCTGAAG, the binding signal (normalized occupancy) was 0.0738.

For CCCAATGC, the binding signal (normalized occupancy) worked out at 0.081.

As for GTCGGAAC, the binding signal (normalized occupancy) worked out at 0.0707.

Take ACTTATAC: the binding signal (normalized occupancy) is 0.0729.

Regarding AACGCGTT, the binding signal (normalized occupancy) amounted to 0.0813.

For ATGTATTG, the binding signal (normalized occupancy) worked out at 0.0801.

Regarding ACGTTTAT, the binding signal (normalized occupancy) is 0.0828.

Take CGTCAAAG: the binding signal (normalized occupancy) is 0.0685.

For AACCGTGG, the binding signal (normalized occupancy) was 0.073.

With CCCAGATC, the binding signal (normalized occupancy) was 0.0708.

Take GATTCAGA: the binding signal (normalized occupancy) was found to be 0.0697.

For the sequence TACGTTGA, the binding signal (normalized occupancy) was found to be 0.082.

In the case of CCTAAAAG, the binding signal (normalized occupancy) is 0.0737.

For AATCCCAG, the binding signal (normalized occupancy) worked out at 0.0794.

On to CATTAACG, for which the binding signal (normalized occupancy) was 0.0806.

Consider AACCGACC, for which the binding signal (normalized occupancy) is 0.0707.

Regarding CAACAGAC, the binding signal (normalized occupancy) was 0.0756.

Take GATCGAAC: the binding signal (normalized occupancy) is 0.0706.

For the sequence AACTAGAT, the binding signal (normalized occupancy) was 0.0761.

For the sequence TCTCGCCA, the binding signal (normalized occupancy) is 0.0759.

Take AATAGGTA: the binding signal (normalized occupancy) is 0.0771.

As to ACGGATCA, the binding signal (normalized occupancy) came to 0.0738.

Turning to CCTGTCAC, the binding signal (normalized occupancy) was 0.0799.

Regarding CCTGTTAC, the binding signal (normalized occupancy) is 0.0862.

In the case of CAACATTC, the binding signal (normalized occupancy) was 0.0766.

In the case of GGTCTCGA, the binding signal (normalized occupancy) came to 0.0716.

Regarding AAATTTCC, the binding signal (normalized occupancy) worked out at 0.0687.

With ACACCACT, the binding signal (normalized occupancy) was 0.077.

On to CCAACCGA, for which the binding signal (normalized occupancy) was 0.0733.

With CTAGTTCA, the binding signal (normalized occupancy) is 0.0739.

Consider GATGTGTA, for which the binding signal (normalized occupancy) was found to be 0.0848.

Consider AGAAGTCT, for which the binding signal (normalized occupancy) was 0.075.

Regarding CCCTCACG, the binding signal (normalized occupancy) is 0.0805.

As to AGACATGC, the binding signal (normalized occupancy) came to 0.102.

As to CAGAACCC, the binding signal (normalized occupancy) came out at 0.0737.

With TCCGATCA, the binding signal (normalized occupancy) worked out at 0.074.

CAGATTCC: the binding signal (normalized occupancy) came out at 0.0745.

Take TATCCTGA: the binding signal (normalized occupancy) was 0.0793.

On to GCTAAAAC, for which the binding signal (normalized occupancy) turned out to be 0.0745.
